# Measurements from publication PMC4336329 (PLoS ONE, 2015).
# About 14,000 (4.5%) of roughly 310,000 compounds showed an effect of 50% or more. Effects have a minus sign here. The list shows a part of the results.
# Target: human ether-à-go-go-related gene (hERG) potassium channel (human, UniProt Q12809)
# Experiment: primary screen, population patch clamp on CHO cells stably expressing hERG
# 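Further: peak tail current of the secondary pulse compared with the same well before compound.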
# Sequence of human ether-à-go-go-related gene (hERG) potassium channel (Q12809 whole entry, looked up): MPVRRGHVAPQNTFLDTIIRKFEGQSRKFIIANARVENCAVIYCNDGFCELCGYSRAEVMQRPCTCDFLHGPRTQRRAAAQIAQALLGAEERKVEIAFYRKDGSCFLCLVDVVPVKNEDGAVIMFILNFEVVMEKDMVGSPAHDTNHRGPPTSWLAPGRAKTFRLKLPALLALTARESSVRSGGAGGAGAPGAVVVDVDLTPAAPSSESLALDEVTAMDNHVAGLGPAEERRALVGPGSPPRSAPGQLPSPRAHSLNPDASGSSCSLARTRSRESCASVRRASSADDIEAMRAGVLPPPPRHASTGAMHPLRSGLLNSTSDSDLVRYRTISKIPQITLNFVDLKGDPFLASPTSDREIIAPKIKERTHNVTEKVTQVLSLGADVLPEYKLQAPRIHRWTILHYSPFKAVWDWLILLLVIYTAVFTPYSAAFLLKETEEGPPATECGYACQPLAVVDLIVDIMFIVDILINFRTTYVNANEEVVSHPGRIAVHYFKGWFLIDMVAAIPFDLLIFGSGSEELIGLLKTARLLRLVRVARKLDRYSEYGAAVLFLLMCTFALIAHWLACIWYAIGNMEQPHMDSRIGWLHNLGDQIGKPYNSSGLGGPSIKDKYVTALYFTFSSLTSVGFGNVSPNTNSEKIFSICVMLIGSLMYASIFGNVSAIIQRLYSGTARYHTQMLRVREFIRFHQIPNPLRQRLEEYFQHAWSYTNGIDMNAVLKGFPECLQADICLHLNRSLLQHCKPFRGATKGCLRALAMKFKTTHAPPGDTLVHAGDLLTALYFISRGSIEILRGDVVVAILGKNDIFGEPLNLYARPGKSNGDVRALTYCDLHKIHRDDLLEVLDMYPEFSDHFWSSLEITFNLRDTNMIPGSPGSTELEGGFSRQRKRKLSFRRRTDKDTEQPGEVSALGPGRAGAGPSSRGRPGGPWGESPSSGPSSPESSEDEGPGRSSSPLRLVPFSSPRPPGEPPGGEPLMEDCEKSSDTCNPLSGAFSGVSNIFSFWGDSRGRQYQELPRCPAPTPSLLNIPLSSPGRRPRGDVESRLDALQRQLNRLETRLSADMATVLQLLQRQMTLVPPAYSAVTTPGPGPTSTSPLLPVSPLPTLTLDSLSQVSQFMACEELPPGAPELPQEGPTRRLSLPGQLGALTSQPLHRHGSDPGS
row,SMILES,"hERG current change (%, negative = inhibition) at 10uM"
1,O=C(Nc1ccc(-c2noc(-c3cccs3)n2)cc1)c1cccnc1,-3.79%
2,Cc1ccc(/C=N/NC(=O)C(C)Oc2ccccc2[N+](=O)[O-])s1 (stereo not drawn),-4.11%
3,CC(=O)Oc1ccc(N2C(=O)[C@@H]3[C@H](C2=O)[C@H]2c4ccccc4C=NN2[C@@H]3C(C)=O)cc1,-18.2%
4,O=C(/C=C/c1ccccc1Cl)NCCN1CCOCC1,-9.72%
5,CNC(=O)c1c(NC(=O)CCS(=O)(=O)c2ccc(C)cc2)sc2c1CCN(C(=O)OC)C2,-25.3%
6,CCOC(=O)c1c(NC(=O)C(=O)N/N=C/c2ccc(O)c(OC)c2)sc2c1CCCCC2,9.58%
7,Cc1ccc(C)c(S(=O)(=O)N(C)Cc2cccs2)c1,-18.3%
8,NC(=O)c1ccsc1NC(=O)COC(=O)/C=C/c1ccccc1,-9.78%
9,Cn1cc(C(=O)N/N=C/C(Br)=C\c2ccccc2)ccc1=O,4.8%
10,Cc1cc(C(=O)NNC(=S)NCc2ccccc2)cs1,22.3%
11,CCOc1cc(C2/C(=C(/O)c3ccc(S(=O)(=O)N4CCCCC4)cc3)C(=O)C(=O)N2CCOC)ccc1O (stereo not drawn),17.8%
12,O=C(NCCCN1CCOCC1)c1cc2c(s1)CCC2,4.7%
13,COc1cc(C(=O)N/N=C/c2cc([N+](=O)[O-])cs2)cc(OC)c1OC,-8.26%
14,Cc1c(C(=O)Nc2ccc(F)cc2)oc2ccc(S(=O)(=O)N3CCCC3)cc12,10.5%
15,COc1ccc(CCN=C(N)NS(=O)(=O)c2ccc(F)cc2)cc1,-0.981%
16,CCc1noc(C)c1C(=O)OCC(=O)Nc1c(F)cccc1F,11.5%
17,Cc1ccc(OCCC(=O)OCC(=O)Nc2ccc(C)cc2Cl)cc1,15.2%
18,CC(NC(=O)c1ccco1)C12CC3CC(CC(C3)C1)C2 (stereo not drawn),-50.1%
19,Cc1ccccc1NC(=O)C(=O)Nc1ccccc1C,17.7%
20,COc1cccc(C(=O)c2c[nH]c(C(=O)NCc3cccs3)c2)c1,-0.271%
21,COc1ccc(CCNC(=O)CSc2nnc(-c3ccco3)c(-c3ccco3)n2)cc1OC,5.59%
22,O=C(Nc1ccc(Cl)cc1)N1CC2CC(C1)c1cccc(=O)n1C2 (stereo not drawn),4.31%

row,SMILES,"hERG current change (%, negative = inhibition) at 10uM"
1,CCCCC(CC)C(=O)Nc1cc(C(=O)NCCC)ccc1N1CCC2(CC1)CC(c1cccc(Br)c1)=NO2 (stereo not drawn),-7.85%
2,Cn1c(Oc2ccc(Cl)cc2)c(C=O)c2ccccc21,-3.01%
3,CCc1nnc(NC(=O)CC(=O)Nc2ccccc2C(=O)O)s1,-5.14%
4,O=C1/C(=C/c2cccc(F)c2)CSc2sccc21,-19.6%
5,CC(=O)OCC(=O)[C@@]12OC3(CCCC3)O[C@@H]1C[C@H]1[C@@H]3CCC4=CC(=O)C=C[C@]4(C)[C@@]3(F)[C@@H](O)C[C@@]12C,4.57%
6,CCN1CCN(Cc2nc3ccc([N+](=O)[O-])cc3c(=O)n2-c2ccc(OC)cc2OC)CC1,-52%
7,CCOC(=O)C1CCN(Cc2cccc(Oc3ccc(Cl)cc3)c2)CC1,3.3%
8,Cc1nn(C)c(C)c1CN(C)C(=O)c1cc2nc(-c3ccco3)cc(C(F)(F)F)n2n1,-6.85%
9,Cc1csc(SCC(=O)Nc2ccccc2[N+](=O)[O-])n1,2.69%
10,O=C(Nc1ccccc1C(F)(F)F)c1cc(-c2ccco2)on1,9.32%
11,CCOc1ccc(NC(=O)CC(Cc2ccc(Cl)cc2)C(=O)O)cc1 (stereo not drawn),2.51%
12,CCc1c(C)sc(NC(=S)N2CCN(C(=O)C3CCCO3)CC2)c1C(=O)OC (stereo not drawn),-13%
13,O=C(NS(=O)(=O)c1ccccc1Cl)c1ccc[nH]1,13.7%
14,COc1ccccc1N1CCN(C(=O)c2ccc(S(=O)(=O)N3CCCC3)cc2)CC1,-0.519%
15,CC1(C)CC(=O)C2=C(C1)N(Cc1cccnc1)C(=O)C2(NC(=O)c1cccnc1)C(F)(F)F (stereo not drawn),18.9%
16,Cc1cc(C(=O)NCc2ccc3c(c2)OCO3)n(-c2ccccc2)n1,-14.8%
17,CC(Oc1ccc(Br)cc1)C(=O)N(C)CC(=O)Nc1ccc(N2CCOCC2)cc1 (stereo not drawn),2.99%
18,COc1cccc(NS(=O)(=O)NC(=O)c2c(C)[nH]c3ccccc23)c1,17.9%
19,CCOC(=O)N1CCC(NC(=O)c2cc(S(=O)(=O)N(CC)CC)ccc2F)CC1,4.33%
20,CCCOc1ccc(/C=N/Nc2ccccc2[N+](=O)[O-])c(O)c1,18.7%
21,CC(C)Cn1c(SCc2nnc(-c3cccs3)o2)nc(O)cc1=O,10.1%
22,O=C(CSc1nc2ccccc2nc1SCC(=O)N1CCOCC1)N1CCOCC1,-5.85%

row,SMILES,"hERG current change (%, negative = inhibition) at 10uM"
1,CC(=O)/C(N=Nc1cccc(C(F)(F)F)c1)=C(\C)O,26.1%
2,COc1ccc(CCNC(=O)C2(c3ccccc3)CC2)cc1,-0.44%
3,Cc1ccc(-c2nc(C(=O)NC3CCCCCC3)no2)cc1,2.66%
4,COc1cc(O)sc1C=Nc1ccc(Cl)cc1Cl,7.62%
5,CCN(CC)S(=O)(=O)c1ccc(N2C(=O)CC2(/C=C/c2ccccc2)C(=O)NC2CCCC2)cc1 (stereo not drawn),4.58%
6,O=C(Nc1cccc(Cl)c1)c1nc[nH]c1C(=O)N1CCc2ccccc2C1,-15.6%
7,CCOC(=O)N1CCOCCOCCN(C(=O)OCC)CCOCC1,10.2%
8,Cc1ccc(C)c(-n2nnnc2SCC(=O)NCCC2=CCCCC2)c1,-7.52%
9,Cc1cccc(C)c1NC(=S)N1CCCN(Cc2ccc(F)cc2)C1,12.6%
10,Cc1ccc(C)c(OCC(=O)Nc2nc3ccc([N+](=O)[O-])cc3s2)c1,-6.92%
11,C=C(C)[C@@H]1CC=C(CN2CCN(Cc3ccccc3)CC2)CC1,-25.3%
12,CCOC(=O)C1CCCN(C(=O)c2cc(Cl)ccc2Cl)C1 (stereo not drawn),2.38%
13,CCn1nc(C(=O)Nc2ccccc2N2CCCC2)c2ccccc2c1=O,-12.7%
14,Cc1oc2ncnc(N)c2c1C,8.52%
15,Cc1cccc(N2CCN(C(c3ccccc3)c3nnnn3C(C)(C)C)CC2)c1C (stereo not drawn),17.7%
16,C=CCc1ccc(OC)c(OC)c1,23.8%
17,CCC(=O)Nc1cccc(NC(=O)c2ccccc2Cl)c1,0.643%
18,Cc1ccc(S(=O)(=O)NCCC2(C(C)C)CCOC(C)(C)C2)cc1 (stereo not drawn),-17.9%
19,CC1CN(C(=O)c2cc(S(=O)(=O)N3CCCCC3)ccc2Cl)CC(C)O1 (stereo not drawn),-4.83%
20,CCN1C(=O)CC2(C[N+]3(C)CCC2CC3)C1=O.[Br-] (stereo not drawn),5.23%
21,Cc1noc(C)c1COC(=O)c1cccc(S(=O)(=O)N2CCOCC2)c1,4.24%
22,O=S1(=O)[C@H]2C[C@@H]3CC[C@]2(CN1Cc1cccc(F)c1)O3,4.83%

row,SMILES,"hERG current change (%, negative = inhibition) at 10uM"
1,O=S(=O)(c1ccccc1)N1CCC(n2nnc3cc(F)ccc32)CC1,-27.7%
2,Cc1ccc(-n2c(N)c(C(=O)N3CCCCC3)sc2=S)cc1,-16.8%
3,CCOC(=O)C1CCN(C(=O)c2cccnc2Cl)CC1,2.15%
4,COc1ccc(S(=O)(=O)Cc2ccc(C(=O)N3CCN(c4cc(C)ccc4C)CC3)o2)cc1,-8.36%
5,CCC1CCCCN1CCCNC(=O)CNC(=O)c1nn(-c2ccc(OC)cc2)c(=O)c2ccccc12 (stereo not drawn),-31.9%
6,COc1ccc(C(=O)OCC(=O)NC2CCCC2)cc1OC,7.67%
7,CCCn1c(=S)[nH]c2cc(C(=O)N3CCc4ccccc43)ccc2c1=O,17.7%
8,COCc1cc(Sc2ccc(Br)cc2)nc(-c2ccccc2)n1,12.7%
9,CC(C)Oc1ccc(CNC(=O)C2CCCN(S(=O)(=O)N3CCOCC3)C2)cc1 (stereo not drawn),-20.8%
10,Cc1cccc(OCC(=O)O/N=C(\N)c2ccc(Cl)cc2)c1,21.6%
11,CCn1c(C)nc2cc(S(=O)(=O)N3CCCC3)ccc21,1.8%
12,CN(C(=O)C1CCOC1)c1nnc(-c2cccnc2)s1 (stereo not drawn),5.06%
13,COc1ccc(C(=O)N2N=C(c3cccs3)CC2c2ccccc2O)cc1 (stereo not drawn),-18.3%
14,COc1ccc(C2C(C#N)=C(N)N(Nc3ccccc3)C3=C2C(=O)CC(C)(C)C3)cc1C (stereo not drawn),-1.35%
15,O=C(CN1C(=O)NC2(CCCCC2)C1=O)Nc1ccccc1N1CCCCC1,-46.6%
16,Cc1c(Cl)c([N+](=O)[O-])nn1CCCC(=O)N(Cc1ccccc1)Cc1ccccc1,-28.7%
17,CCCC(=O)N1CCN(S(=O)(=O)c2cc(Cl)ccc2OC)CC1,-12.5%
18,CC(C)(C)C(=O)N1CCN(c2ccnc3cc(Cl)ccc23)CC1,-73.9%
19,COc1ccc(S(=O)(=O)NCCC(=O)NCc2cccs2)cc1,-0.129%
20,Cc1c(OCC(=O)N2CCN(c3ccccc3)CC2)ccc2c3c(c(=O)oc12)CCCC3,19.5%
21,CC[C@H](C)[C@H](NC(N)=O)C(=O)Nc1ccc2c(c1)OCO2,16.1%
